Experimental data as given in article PMC9217908, “Screening of commonly prescribed drugs for effects on the CAT1-mediated transport of L-arginine and arginine derivatives” (Amino Acids, 2022).
Read-outs that look alike come from different tables or passages of the source.

Key:
Experiment in all cases: cell-based
[1] = biological target: T1, CAT1 (cationic amino acid transporter 1, CAT1/SLC7A1) (Homo sapiens, UniProt P30825); set-up: species or system HEK-CAT1 (HEK293 stably transfected); Inhibition of net CAT1-mediated [3H]-L-arginine (100 uM) uptake, 5 min, scintillation counting, vector control subtracted; conditions: HEK293, L-arginine 100 uM as substrate; for inhibition at 20 µM: read-out: % Inhibition of L-arginine uptake at 20 µM; for inhibition at 200 µM: read-out: % Inhibition of L-arginine uptake at 200 µM
T1 construct: full-length human transporter stably transfected in HEK cells (HEK-CAT1); net uptake against HEK-VC vector control cells
T1 sequence (P30825 whole entry): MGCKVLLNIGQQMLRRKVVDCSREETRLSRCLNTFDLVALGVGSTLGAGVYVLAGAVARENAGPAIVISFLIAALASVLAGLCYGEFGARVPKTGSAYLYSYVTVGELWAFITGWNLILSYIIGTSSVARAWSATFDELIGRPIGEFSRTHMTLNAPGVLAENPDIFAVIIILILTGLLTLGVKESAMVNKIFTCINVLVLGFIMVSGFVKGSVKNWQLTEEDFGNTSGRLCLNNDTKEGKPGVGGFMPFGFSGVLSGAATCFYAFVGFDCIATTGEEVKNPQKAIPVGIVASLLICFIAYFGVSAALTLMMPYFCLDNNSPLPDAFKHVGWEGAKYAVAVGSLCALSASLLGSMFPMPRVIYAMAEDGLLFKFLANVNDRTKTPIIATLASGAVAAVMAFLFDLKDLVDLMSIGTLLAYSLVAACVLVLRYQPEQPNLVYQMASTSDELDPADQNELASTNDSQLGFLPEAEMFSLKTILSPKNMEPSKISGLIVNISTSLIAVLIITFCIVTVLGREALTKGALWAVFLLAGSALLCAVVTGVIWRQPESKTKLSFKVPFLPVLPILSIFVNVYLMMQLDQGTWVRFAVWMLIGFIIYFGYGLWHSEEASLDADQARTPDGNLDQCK
Experimental: (§1) Uptake and inhibition assays using HEK-CAT1 and HEK-VC cells and L-arginine, L-homoarginine, and ADMA as substrates were performed using the protocol described (Strobel et al. [2012]; Chafai et al. [2017]). Briefly, after incubation, the supernatant was replaced with transport buffer containing [^3H]- L-arginine for 5 min and 2.5 min for medium containing [^3H]-L-homoarginine or [^3H]-ADMA with or without the test compound. The reference drugs were screened at concentrations of 20 µM (Figs. 1A, 2A, and 3A) and 200 µM (Figs. 1B, 2B, and 3B). […] The net uptake was determined by subtracting the total amount taken up by control cells from the amount taken up by CAT1-expressing cells, which was expressed as a percentage of the amount taken up by the control. To determine the inhibitory effects of the drugs on CAT1-mediated transport of L-arginine, L-homoarginine, or ADMA, the control was measured in the absence of the potential inhibitor. The value for the percent inhibition was calculated as: Inhibition (%) = 100 – (V/V0 ^* 100), where V and V0 are the net uptake rates (uptake into HEK-CAT1 cells—uptake into HEK-VC cells) with and without test drugs, respectively. […] Each bar represents the effect of one compound on CAT1-mediated L-arginine (100 μM) uptake as percent inhibition. Data were obtained from at least two independent experiments performed in triplicate (n = 6–9) and each test data from the independent experiment were normalized to the respective control data to get the value of percent inhibition. Negative inhibition values indicate stimulated CAT1-mediated uptake. Data were analyzed using one-way ANOVA and Dunnett’s multiple comparison test with p < 0.05. Bars showing a statistically significant inhibition or transport stimulation are shaded in black

[2] = biological target: T1, CAT1 (cationic amino acid transporter 1, CAT1/SLC7A1); set-up: species or system HEK-CAT1 (HEK293 stably transfected); Inhibition of net CAT1-mediated [3H]-ADMA (1 uM) uptake, 2.5 min, scintillation counting, vector control subtracted; conditions: HEK293, ADMA 1 uM as substrate; for inhibition at 20 µM: read-out: % Inhibition of ADMA uptake at 20 µM; for inhibition at 200 µM: read-out: % Inhibition of ADMA uptake at 200 µM
Experimental: as §1, with “ADMA (1” for “L-arginine (100”

[3] = biological target: T1, CAT1 (cationic amino acid transporter 1, CAT1/SLC7A1); set-up: species or system HEK-CAT1 (HEK293 stably transfected); Inhibition of net CAT1-mediated [3H]-L-homoarginine (1 uM) uptake, 2.5 min, scintillation counting, vector control subtracted; conditions: HEK293; L-homoarginine 1 uM as substrate; read-out: % Inhibition of L-homoarginine uptake at 20 µM
Experimental: as §1, with “L-homoarginine (1” for “L-arginine (100”, “Data were obtained from at least two independent experiments performed in triplicate (n = 6–9) and each test data from the independent experiment were normalized to the respective control data to get the value of percent inhibition. Negative inhibition values indicate stimulated CAT1-mediated uptake.” left out, “Bars showing a statistically significant inhibition or transport stimulation are shaded in black” left out

Row | inhibition at 20 µM [1] | inhibition at 20 µM [2] | inhibition at 200 µM [2] | inhibition at 200 µM [1] | inhibition at 20 µM [3] | Structure (SMILES)
1 | -0.8 ± 5.3% | -0.5 ± 5.9% | -8.9 ± 14.8% | – | – | CC(C)NCC(O)COc1ccc(CC(N)=O)cc1 (centres unmarked) [Atenolol]
2 | 17.5 ± 8.8% | 4.8 ± 9.4% | -14.4 ± 4% | 12.9 ± 2.6% | – | NS(=O)(=O)c1cc(C(=O)O)c(NCc2ccco2)cc1Cl [Furosemide]
3 | -3.1 ± 6.6% | 6.7 ± 4% | 11.5 ± 2.7% | 20.3 ± 1.7% | -3.1 ± 6.6% | COc1ccc2cc([C@H](C)C(=O)O)ccc2c1 [Naproxen]
4 | -8.6 ± 3.6% | 36 ± 3.5% | -17.1 ± 2.8% | 0.9 ± 0.8% | – | Cc1cc(NS(=O)(=O)c2ccc(N)cc2)no1 [Sulfamethoxazole]
5 | 20.1 ± 0.9% | -13.7 ± 1.4% | -48.1 ± 12% | 1.8 ± 2.7% | – | Nc1ccc(S(N)(=O)=O)cc1 [Sulfanilamide]
